Assay results reported in the RNAGym collection of RNA variant scans (doi:10.1073/pnas.2313332121).
Variants at the floor of the assay are shown more often than the library holds them.

B1: TPR 5TU (parent)
chain: GGAUCUUCUCGAUCUAACAAAAAAGACAAAUCUGCCACAAAGCUUGAGAGCAUCUUCGGAUGCAGAGGCGGCAGCCUUCGGUGGCGCGAUAGCGCCAACGUUCUCAACUAUGACACGCAAAACGCGUGCUCCGUUGAAUGGAGUUUAUCAUG

Variants of: B1
Experiment: polymerase ribozyme fitness, log enrichment relative to wild type (log ratio); higher = more active; in vitro selection for triplet polymerase activity
How it was run: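 Mutant libraries were PCR-built and transcribed for each subunit of a heterodimeric triplet polymerase ribozyme and selected for one round in triplicate at −7 °C, frozen, before gel excision of extended constructs and streptavidin-bead capture. Input and output libraries were Illumina-sequenced, keeping genotypes with ≥10 input reads and ≥1 read per output. Fitness is a logarithmic ratio of genotype to wild-type enrichment, in base 2, using inverse-variance-weighted replicate averages.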

Variant | polymerase ribozyme fitness (log ratio)
GGAUCUUCUCGAUCUAACAAAAAAGACAAAUCUGCCAGAAAGCUUGAGAGCAUCUUCGGAUGCAGAGGCGGCAGGCUUCGGUGCCGCGAUAGCGCCAACGUUAUCAACUAUGACACGCAAAACGCGUGCUCCGUUGAAUGGAGUUUAUCAUG [C38G C75G G84C C103A] | ≤ -4.2
GGAUCUUCUCGAUCUAACAAAAAAGACAAAUCUGCCAGAAAGCUUGAGAGCAUCUUCGGAUGCAGAGGUGGCAGCCUUCGGUGUCGCGAUAGCGCCAUCGUUCUCAACUAUGACACGCAAAACUCGUGCUCCGUUGGAUGGAGUUUAUCAUG [C38G C69U G84U A98U G124U A137G] | ≤ -4.2
GGAUCUUCUCGAUCUAACAAAAAAGACAAAUCUGCCAGAAAGCUUGAGAGCAUCAUCGGAUGCAGAGGCGGCAGCCUUCGGUGGCGCGAUAGCGCCAACGUUCUCAACUACGACACGCAAAACGCGUGCUCCGUUGAAUGAAGUCUAUCAUG [C38G U55A U111C G141A U145C] | ≤ -4.2
GGAUCUUCUCGAUCUAACAAAAAAGACAAAUCUGCCAGAAAGCUUGAGAGCAUCUUCGGAUGCAGAGGCGGCAGCCUUCGGUGGCGCGAUACCGUCAACGUUCUCAACUAUGACACGCAAAACGCGUGCUCCGUUGAAUGGAGUUUAUCAUG [C38G G92C C95U] | -1.62
GGAUCUUCUCGAUCUAACAAAAAAGACAAAUCUGCCAUCAAGCUUGAGAGCAUCUUCGGAUGCAGAGGCGGCAGCCUUCGGUGGCGCGAUAGCGUCAACGUUCUCAACUAUGACACGCAAAACGCGUGCUCCGUUGAAUGGAGUUUAUCAUG [C38U A39C C95U] | -2.34
GGAUCUUCUCGAUCUAACAAAAAAGACAAAUCUGCCAUAACGCUUGAGAGCAUCUUCGGAUGCAGAGGCGGCAGCCUUCGGUGGCGCGAUAGCGCCAACGUUCUCAACUAUGACACGCAAAACGCGUGCUCUGUUGAAUGGAGUUUAUCAUG [C38U A41C C132U] | -1.49
GGAUCUUCUCGAUCUAACAAAAAAGACAAAUCUGCCAGAAAGCUUGAGAGCAUCUUCGGCUGCAGAGGCGGCAGCCUUCGGUGGAGCGAUAGUGCUAACGUUGUCAACUAUGACACGCAAAACGCGUGCUCCGUUGAAUGGAGUUUAUCAUG [C38G A60C C85A C93U C96U C103G] | ≤ -4.2
GGAUCUUCUCGAUCUAACAAAAAAGACAAAUCUGCCAGAAAGCUUGAGAGCAUCUUCCGAUGCAGAGGCGGCAGCCUUCGGUGGCGCGAUAGCGCCAACGGUCUGAACUAUGACACGCAAAACGCGUGCUCCGUUGAAUGGAGUUUAUCAUG [C38G G58C U101G C105G] | ≤ -4.2
GGAUCUUCUCGAUCUAACAAAAAAGACAAAUCUGCCAGAAAGCUGGAGAGCAUCUACGGAUGCAGAGGCGGCAGCCUUCGGUGGCGCGAUAGGGCCAACGUUCUCAACUAUGACACGCAAAAAGCGGGCUCCGUUGAAUGGAGUUUAUCAUG [C38G U45G U56A C93G C123A U127G] | ≤ -4.2
GGAUCUUCUCGAUCUAACAAAAAAGACAAAUCUGCCAUAAAGCUUGAGAGCAUCUUCGGAUGCAGAGGCGGCAGCCUUCGGUGGCGCGAUAGCGCCAACGUUCUCAACUAUGACACGCAAAACGCGUGCUCCGUUGAAUGGAGUUUAUCAUG [C38U] | 0.0316
GGAUCUUCUCGAUCUAACAAAAAAGACAAAUCUGCCAUACAGCUUGAGAGCAUCUUCGGUUGCAGAGACGGCAGCCUUCGGUGGCGCGAUAGGGCCAACGUUCUCAACUAUGACACACAAAACGCGUGCUCCGUUGAAUGGAGUUUAUCAUG [C38U A40C A60U G68A C93G G117A] | ≤ -4.2
GGAUCUUCUCGAUCUAACAAAAAAGACAAAUCUGCCAGAAAGCUUGAGAGCAUCUUAGGAUGCAGAGGCGGCAGCCUUCGGUGGCGCGAUAGCGCCAACGUUCUCAACUAUGACCCGCAAAACGCGUGCUCCGUUGAAUGGAGGUUAUCAUG [C38G C57A A115C U144G] | -1.02
GGAUCUUCUCGAUCUAACAAAAAAGACAAAUCUGCCAGAAAGCUUGAGAGCAUCUUCGGAUGCAGAGGCGGCAGCCUUCGGUGGAGCGAUAGCGCCAACGUUCUCAACUAUGACAAGCAGAACGCGUGCUCCGUUGAAUGGAGUUUAUCAUG [C38G C85A C116A A120G] | -2.28
GGAUCUUCUCGAUCUAACAAAAAAGACAAAUCUGCCAGAAAGCUUGAGAGCAUCUUCGGAUGCAGAGCCGGCAGCCUUCGGUGGGGCGAUAGCGCCAACGUUCUCAACUAUGACACGCAAAACGCAUGCUCCGUUGAAGAGAGUUUAUGAUG [C38G G68C C85G G126A U139G G140A C149G] | ≤ -4.2
GGAUCUUCUCGAUCUAACAAAAAAGACAAAUCUGCCAGAAAGCUUGAGAGCGUCUUCGGAUGCAGAGGCGGCAGGCUUCGGUGGCGCGAUAGCGCCAACGUUCUCAACUAUGACACGCAAAACGCGUGCUCCGUUGAAUGGAGUUUAUCAUG [C38G A52G C75G] | ≤ -4.2
GGAUCUUCUCGAUCUAACAAAAAAGACAAAUCUGCCAUAUAGCUUGAGAGCAUCUUCUGAUGCAGAGGCGGCAGCCUUCGGUGGCGCGACAGCGCCAACCUUCUGAACUAUGACACGAAAAACGCGUGCUCCGUUGAAUGGAGUUUAUCAUG [C38U A40U G58U U90C G100C C105G C118A] | ≤ -4.2
GGAUCUUCUCGAUCUAACAAAAAAGACAAAUCUGCCAGAAAGCUUGACAGCAUCUUCGGAUGCAGAGGCGGCAGCCUUCGGUGGCACGAUAACGCCAACGUUCUCAACUAUGACACGCAAAACGCGUGCUCCGUUGAAUGGAGUUUAUCAUG [C38G G48C G86A G92A] | ≤ -4.2
GGAUCUUCUCGAUCUAACAAAAAAGACAAAUCUGCCAGAAAGCUUGAGAGCAUCUUCGGAUGCAGAGGCGGCAGCCUUCGGUGGCGAGAUAGCGCCAACGUUCUCACCUAUGACACGAAAAACGCGUGCUCCGUUUAAUGAAGUUUAUUAUG [C38G C87A A107C C118A G136U G141A C149U] | ≤ -4.2
GGAUCUUCUCGAUCUAACAAAAAAGACAAAUCUGCCAGAAAGUUUGAGAGCAUCUUCGGAUGCAGAGGCGGCAGCCUUCGUUGGCUCGAUAGCGCCAGCGUUGUCAACUAUGACACGCAAAACGCGUGCUCCGUUGAAUGGAGUUUAUCGCG [C38G C43U G81U G86U A98G C103G A150G U151C] | ≤ -4.2
